# The supplement of paper PMC9135407
# “And” between values parts separate entries of the source, which are not always exact repeats. Identical values can stand only once. Counter-ions that a name gives are not always drawn. The campaign covered roughly 5,800 compounds. About 620 (11%) showed activity.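 Rule for the calls: active = score above a cut-off or among the top three wells of a plate; in these data no inactive exceeds 0.85.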 The list shows a part of the results, in another mix than the full data.
# Tested on: primary human hepatic stellate cells (donor 1)
# Assay: scaled lipid accumulation score (0 = DMSO-like, 1 = nortriptyline-like); higher = stronger HSC inactivation (lipid re-accumulation), active = hit call of the paper
# Details: 48 h
# [1] = library stock concentration: 1 mM
# [2] = library stock concentration: 10 mM
# [3] = library stock concentration: 3.33 mM
# [4] = library stock concentration: 80 uM
# [5] = library stock concentration: 400 uM
# [6] = library stock concentration: 2 mM
smiles,measurement,setting,value
CC(C)OC(=O)CCC/C=C/C[C@H]1C(=O)C[C@@H](O)[C@@H]1/C=C/[C@@H](O)COc1cccc(C(F)(F)F)c1 [9-keto Fluprostenol isopropyl ester],scaled lipid accumulation score,[1],inactive: ≤ 0
Cc1cc2cc3c(C)cc(=O)oc3c(C)c2o1 [Trioxsalen],scaled lipid accumulation score,,inactive: ≤ 0
same,scaled lipid accumulation score,library stock concentration: 8.8 mM,inactive: ≤ 0
same,scaled lipid accumulation score,[2],inactive: ≤ 0
CCCCOc1ccc(C(=O)Nc2ccc(F)cc2F)cc1,scaled lipid accumulation score,[3],inactive: 0.241
same,scaled lipid accumulation score,[2],inactive: 0.22
Nc1nc(OCc2cc(Br)cs2)c2[nH]cnc2n1 [Lomeguatrib],scaled lipid accumulation score,[3],inactive: ≤ -0.009
same,scaled lipid accumulation score,[2],inactive: 0.04
CC(=O)Nc1nnc(S(N)(=O)=O)s1,scaled lipid accumulation score,[2],inactive: ≤ 0
CC(=O)Nc1nnc(S(N)(=O)=O)s1 [Acetazolamide],scaled lipid accumulation score,,inactive: ≤ 0
same,scaled lipid accumulation score,library stock concentration: 9 mM,inactive: 0.014
same,scaled lipid accumulation score,[2],inactive: ≤ 0
NC1(Cc2ccc(Cl)cc2)CCN(c2ncnc3[nH]ccc23)CC1,scaled lipid accumulation score,[3],inactive: 0.47
"O=C(O)CCC(C(=O)O)N1C(=O)c2ccccc2C1=O [L-Glutamic acid, N-phthaloyl-]",scaled lipid accumulation score,[2],inactive: 0.174
C[C@]12CC[C@@H]3c4ccc(O)cc4C[C@@H](CCCCCCCCC[S+]([O-])CCCC(F)(F)C(F)(F)F)[C@H]3[C@@H]1CC[C@@H]2O (stereo partly specified),scaled lipid accumulation score,[2],inactive: ≤ -0.006
C[C@]12CC[C@@H]3c4ccc(O)cc4C[C@@H](CCCCCCCCC[S+]([O-])CCCC(F)(F)C(F)(F)F)[C@H]3[C@@H]1CC[C@@H]2O (stereo partly specified) [Fulvestrant],scaled lipid accumulation score,[3],inactive: ≤ 0
same,scaled lipid accumulation score,[2],inactive: ≤ 0 and inactive: 0.194
O=C(O)[C@@H]1[C@H]2C[C@H]3c4[nH]c5ccccc5c4CCN3C[C@@H]2CC[C@@H]1O [Yohimbinic acid monohydrate],scaled lipid accumulation score,,inactive: ≤ 0
Clc1ccc(C2(c3ccc(-c4cn[nH]c4)cc3)CCNCC2)cc1,scaled lipid accumulation score,[4],inactive: 0.375
same,scaled lipid accumulation score,[5],inactive: 0.622
same,scaled lipid accumulation score,[2],inactive: 0.425
CO/N=C(\C(=O)N[C@@H]1C(=O)N2C(C(=O)O)=C(COC(C)=O)CS[C@H]12)c1csc(N)n1 [Cefotaxime acid],scaled lipid accumulation score,library stock concentration: 4.4 mM,inactive: ≤ 0
CO/N=C(\C(=O)N[C@@H]1C(=O)N2C(C(=O)O)=C(COC(C)=O)CS[C@H]12)c1csc(N)n1,scaled lipid accumulation score,[2],inactive: ≤ 0
CO/N=C(\C(=O)N[C@@H]1C(=O)N2C(C(=O)O)=C(COC(C)=O)CS[C@H]12)c1csc(N)n1 [Cefotaxime sodium],scaled lipid accumulation score,[2],inactive: ≤ 0 and inactive: 0.141
CO/N=C(\C(=O)N[C@@H]1C(=O)N2C(C(=O)O)=C(COC(C)=O)CS[C@H]12)c1csc(N)n1 [Cefotaxime sodium salt],scaled lipid accumulation score,,inactive: ≤ 0
CCCCc1oc2ccccc2c1C(=O)c1cc(I)c(OCCN(CC)CC)c(I)c1.Cl [Amiodarone hydrochloride],scaled lipid accumulation score,[2],active: 1.04
COC1CCC(C(=O)c2ccc3nc4c(cc3c2)CCCO4)CC1 (stereo unspecified),scaled lipid accumulation score,[2],inactive: ≤ -0.001
C=C[C@](C)(O)CC[C@@H]1[C@@]2(C)CCCC(C)(C)[C@@H]2CC[C@@]1(C)O [Sclareol],scaled lipid accumulation score,[3],inactive: ≤ 0
same,scaled lipid accumulation score,[2],inactive: 0.568
C=C1O[C@@](CO)(n2cnc3c(N)ncnc32)[C@H](O)[C@@H]1O [Decoyinine],scaled lipid accumulation score,library stock concentration: 17.9 mM,inactive: ≤ -0.012
NC(=O)C1CCCc2c1[nH]c1ccc(Cl)cc21 (stereo unspecified),scaled lipid accumulation score,[4],inactive: ≤ 0
same,scaled lipid accumulation score,[5],inactive: ≤ 0
same,scaled lipid accumulation score,[6],inactive: ≤ 0
same,scaled lipid accumulation score,[2],inactive: ≤ 0
NC(=O)C1CCCc2c1[nH]c1ccc(Cl)cc21 (stereo unspecified) [EX 527 (Selisistat)],scaled lipid accumulation score,[3],inactive: ≤ 0
same,scaled lipid accumulation score,[2],inactive: 0.039
O=C(/C=C/c1ccc(O)c(O)c1)O[C@H](Cc1ccc(O)c(O)c1)C(=O)O [Rosmarinic acid],scaled lipid accumulation score,[2],inactive: ≤ 0 and inactive: 0.014
O=C(/C=C/c1ccc(O)c(O)c1)O[C@H](Cc1ccc(O)c(O)c1)C(=O)O [Rosmarinic Acid],scaled lipid accumulation score,[1],inactive: 0.002
C1CCC(N=C(NC23CC4CC(CC(C4)C2)C3)N2CCOCC2)CC1,scaled lipid accumulation score,[2],inactive: 0.228
CCS(=O)(=O)c1cccc(-c2cc(C(=O)NC3CCN(C)CC3)c(C)c3[nH]c4ncc(C)cc4c23)c1,scaled lipid accumulation score,[3],inactive: 0.629
same,scaled lipid accumulation score,[2],inactive: 0.649
NC1CCN(O)C1=O (stereo unspecified),scaled lipid accumulation score,[2],inactive: ≤ 0
COC(=O)[C@H](Cc1ccccc1)NC(=O)[C@@H](N)CC(=O)O [Aspartame],scaled lipid accumulation score,[3],inactive: ≤ 0
same,scaled lipid accumulation score,library stock concentration: 6.8 mM,inactive: ≤ 0
same,scaled lipid accumulation score,[2],inactive: ≤ 0 and inactive: ≤ -0.027
C[C@@H]1CCC[C@H](C)N1NC(=O)c1ccc(Cl)c(S(N)(=O)=O)c1 [Clopamide],scaled lipid accumulation score,,inactive: 0.076
same,scaled lipid accumulation score,library stock concentration: 5.8 mM,inactive: ≤ -0.006 and inactive: ≤ 0
CCn1c(N)c(C(=O)NC)c(=O)c2ccc(C#CC(C)(O)COC)nc21 (stereo unspecified),scaled lipid accumulation score,[3],inactive: 0.015
same,scaled lipid accumulation score,[2],inactive: 0.157
CCOC(=O)C1=C(C)NC(=S)NC1c1cccc(O)c1 (stereo unspecified) [Monastrol],scaled lipid accumulation score,[2],inactive: ≤ -0.006
same,scaled lipid accumulation score,library stock concentration: 17.1 mM,inactive: 0.086
CC[C@H]1OC(=O)[C@H](C)[C@@H](O[C@H]2C[C@@](C)(OC)[C@@H](O)[C@H](C)O2)[C@H](C)[C@@H](O[C@@H]2O[C@H](C)C[C@H](N(C)C)[C@H]2O)[C@](C)(O)C[C@@H](C)CN(C)[C@H](C)[C@@H](O)[C@]1(C)O [Azithromycin],scaled lipid accumulation score,[3],inactive: 0.261
same,scaled lipid accumulation score,[2],inactive: 0.672 and inactive: 0.411 and inactive: 0.753
CC[C@H]1OC(=O)[C@H](C)[C@@H](O[C@H]2C[C@@](C)(OC)[C@@H](O)[C@H](C)O2)[C@H](C)[C@@H](O[C@@H]2O[C@H](C)C[C@H](N(C)C)[C@H]2O)[C@](C)(O)C[C@@H](C)CN(C)[C@H](C)[C@@H](O)[C@]1(C)O [Azithromycin dihydrate],scaled lipid accumulation score,[2],inactive: 0.846
OCCn1cc(-c2ccc3c(c2)CC/C3=N\O)c(-c2ccncc2)n1,scaled lipid accumulation score,[4],inactive: 0.006
same,scaled lipid accumulation score,[5],inactive: 0.086
same,scaled lipid accumulation score,[6],inactive: ≤ -0.009
same,scaled lipid accumulation score,[3],inactive: 0.041
same,scaled lipid accumulation score,[2],inactive: ≤ 0 and inactive: ≤ -0.009
CCC(C)(C)N=C(NC#N)Nc1cccnc1,scaled lipid accumulation score,library stock concentration: 9.9 mM,inactive: ≤ 0
CCOC(=O)C(Cc1ccc(O)cc1)NC(C)=O (stereo unspecified) [Acetyl tyrosine ethyl ester],scaled lipid accumulation score,[2],inactive: ≤ 0
